Results taken from PubChem BioAssay AID686978 (National Center for Advancing Translational Sciences (NCATS), 2013).
About 64,000 (15%) of roughly 420,000 compounds were called active. The inconclusive results got no clear call from the source; some entries with a clear call stand among them for comparison. Calls come from the whole dose curve; as a rule, active = well fitted inhibition curve with a large enough effect; inconclusive = small, poorly fitted or top-dose-only effect; inactive = flat fitted curve, though single readings scatter. No potency is given beside an inconclusive call; the fits are too rough.
% is set by controls: 0 for no effect and ±100 for the full control effect; potency is the fitted concentration of half-maximal effect; tags give direction and shape of the fitted curve.

Experiment: qHTS for Inhibitors of human tyrosyl-DNA phosphodiesterase 1 (TDP1): qHTS in cells in absence of CPT; note: nearly all actives have a fitted effect of over 55% in size
Settings: DT40 Tdp1-/- hTDP1 cells, no CPT, ATP luminescence, 48 h; activity change, negative = growth inhibition: at 46.2 µM (top of the series) unless noted
How it was run: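 Stably hTDP1-transfected Tdp1-null chicken DT40 cells were treated with library compounds minus camptothecin and grown for at least 48 hr at 37 °C, after which cellular ATP was quantified by luminescence.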
For CCc1cc(=O)oc2c3c(cc(OCC(=O)NCc4cccnc4)c12)OC(C)(C)CC3, the Potency was active: 20.6 µM.
With O=C(O)c1ccc(N/N=C/c2ccc3ncccc3c2)cc1 the “activity change, negative = growth inhibition” value was inactive: -3.17%.
For CC(C(=O)NCc1ccc(F)cc1)c1ccc([N+](=O)[O-])cc1 (stereo not drawn), the “activity change, negative = growth inhibition” value was inactive: -29.9%.
In the case of COc1ccc(CNC(=O)Nc2ccc3c(c2)N(C)C(=O)c2ccccc2S3)cc1OC, the Potency is reported as inconclusive [inhibitor, single point].
For CCc1ccc(/C(C)=N/NC(=O)C(O)c2ccccc2)s1 (stereo not drawn), the “activity change, negative = growth inhibition” value was inactive: -19.5%.
In the case of O=C(NCCN1CCOCC1)c1ccccc1-c1ccccc1, the “activity change, negative = growth inhibition” value is reported as inactive: -27.4%.
For CC1CC(C)(C)OC(c2ccc(C(C)C)cc2)O1 (stereo not drawn), the “activity change, negative = growth inhibition” value was inactive: -1.23%.
With CN1CC(=O)NC1=N the “activity change, negative = growth inhibition” value was inactive: 13.8%.
With O=C(NCc1ccccc1)Nc1cccn(Cc2ccc(F)cc2)c1=O the Potency was inconclusive [inhibitor, single point].
For CCCCN(C(=O)C1=NN(c2cc(C)ccc2C)C(=O)CC1)c1c(N)n(CCC)c(=O)[nH]c1=O, the “activity change, negative = growth inhibition” value was inactive: 21.6%.
In the case of CCCOC(=O)c1ccc(Nc2nc(C)cc(=O)[nH]2)cc1, the Potency is reported as inconclusive [inhibitor, single point].
For CCCCc1c(C)c2cc(C)ccc2[nH]c1=O, the Potency was inconclusive [inhibitor, partial curve].
With COc1ccc(-c2nc(CSCC(=O)NCCc3ccccc3)c(C)o2)cc1 the Potency was inconclusive [inhibitor, partial curve, poor fit].
With NS(=O)(=O)c1cccc(NC(=O)CSc2nnc(C3CC3)n2-c2ccccc2)c1 the Potency was inconclusive [inhibitor, single point].
For N=c1c(C(=O)NCCN2CCOCC2)cc2c(=O)n3ccccc3nc2n1Cc1ccc(F)cc1, the “activity change, negative = growth inhibition” value was inactive: -4.1%.
For Nc1ncc2[nH]c(N)nc2n1, the “activity change, negative = growth inhibition” value was inactive: 6.78%.
With CCCCCCCCN1C(=O)[C@H](CC(=O)NCCC(C)C)C[C@@]2(C(=O)OC)CC(C)(C)CC=C12 the Potency was inconclusive [inhibitor, single point].
In the case of CN(Cc1ccccc1)c1ccc(-c2nc(-c3ccccn3)no2)cc1[N+](=O)[O-], the Potency is reported as active: 18.4 µM.
In the case of CCN(CC)c1ccc(CNc2ccc3c(c2)ncn3C(C)(C)C)cc1, the Potency is reported as inconclusive [inhibitor, single point].
In the case of CCn1c(CN2CCC(C)CC2)nc2cc(NC(=O)COc3ccc(Cl)c(C)c3)ccc21, the Potency is reported as active: 5.17 µM.
With CC(=O)Nc1cccc(NC(=O)CSc2nc(=O)n(CCCN3CCOCC3)c3c2CCC3)c1 the “activity change, negative = growth inhibition” value was inactive: 3.15%.
With O=C(NN1CCN(Cc2ccccc2Cl)CC1)c1ccc(Br)cc1 the Potency was inconclusive [inhibitor, single point].
In the case of C[N+]1(CCNC(=O)/C=N/O)CCCCC1, the “activity change, negative = growth inhibition” value is reported as inactive: -2.55%.
For Fc1ccc(NC(=S)NCc2ccccn2)cc1, the “activity change, negative = growth inhibition” value was inactive: -11.1%.
For Cc1cc(C)nc(NC(=O)c2cc([N+](=O)[O-])cc([N+](=O)[O-])c2)n1, the activity change, negative = growth inhibition was inconclusive: -31.3% [inhibitor].
In the case of COc1cc(OC)c(NC(=O)CCc2c(C)nc3ncnn3c2C)cc1Cl, the “activity change, negative = growth inhibition” value is reported as inactive: -0.22%.
In the case of CC(C)C1Oc2ccccc2N(CC(=O)N(C)C2CCCCC2)C1=O (stereo not drawn), the Potency is reported as inconclusive [inhibitor, partial curve].
With Cc1cc(=O)oc2cc(OCC(=O)NC3(C#N)CCCCC3)ccc12 the “activity change, negative = growth inhibition” value was inactive: -8.42%.
With CN(CC(=O)Nc1ccc(S(=O)(=O)N2CCCC2)cc1)Cc1ccc(Cl)cc1 the Potency was inconclusive [inhibitor, single point].
In the case of O=C1CCN(Cc2ccc(O)cc2)CCN1[C@H](CO)Cc1ccccc1, the Potency is reported as “inactive”.
In the case of CCOc1[nH]n(-c2ccccc2)c(=O)c1C=Nc1ccccc1, the Potency is reported as active: 5.8 µM.
With O=[N+]([O-])c1cccnc1NCc1cccs1 the “activity change, negative = growth inhibition” value was inactive: 2.12%.
In the case of O=C(c1ccc(F)cc1)C1CCN(Cc2cn[nH]c2-c2ccccc2)CC1, the Potency is reported as inconclusive [inhibitor, single point].
With CCOC(=O)c1cc(C(=O)OCC)cc(-n2cc(O)c(C(=O)OCC)n2)c1 the Potency was inconclusive [inhibitor, single point].
For CC(=O)c1cccc(N=Cc2c(O)ccc3ccccc23)c1, the “activity change, negative = growth inhibition” value was inactive: -26.7%.
With Cc1cccc(NC(=O)Cn2cc(C(=O)c3ccco3)c3ccccc32)c1 the Potency was inconclusive [inhibitor, single point].
In the case of CCN1CCN(CCC(=O)Nc2ccccc2C)CC1, the Potency is reported as inconclusive [inhibitor, single point].
In the case of COc1ccc(-c2oc3ncn(CCN4CCOCC4)c(=N)c3c2-c2ccc(OC)cc2)cc1, the Potency is reported as active: 13 µM.
In the case of Cn1c(SCc2ccccc2C#N)nc2ccccc2c1=O, the Potency is reported as inconclusive [inhibitor, partial curve, poor fit].
In the case of COc1ccc(/C=C/C(=O)OCC(=O)N2c3ccccc3CC2C)c(OC)c1 (stereo not drawn), the Potency is reported as active: 18.4 µM.
In the case of C/C(=N/NC(=O)C(O)(c1ccccc1)c1ccccc1)c1ccc([N+](=O)[O-])o1, the Potency is reported as active: 20.6 µM.
In the case of COc1cc(C)ccc1OCc1cc(C(=O)N2CCCCCCC2)no1, the “activity change, negative = growth inhibition” value is reported as inactive: -4.02%.
In the case of NS(=O)(=O)c1ccc(CNC(=O)CC23CC4CC(CC(C4)C2)C3)cc1, the Potency is reported as inconclusive [inhibitor, single point].
In the case of CC(C)c1ccc(NC(=O)C2(C)Cc3c(-c4cccc(C(N)=O)c4)ccnc3O2)cc1 (stereo not drawn), the Potency is reported as inconclusive [inhibitor, single point].
With O=C(NC1(C(F)(F)F)C(=O)Nc2c1c(=O)[nH]c(=O)n2-c1ccc(Cl)cc1)c1ccccc1F (stereo not drawn) the “activity change, negative = growth inhibition” value was inactive: -17%.
With Cc1cccc(N2CCN(C(=O)N3CCCCC3)CC2)c1C the “activity change, negative = growth inhibition” value was inactive: -21.7%.
In the case of CC1CCN(CC(=O)N2CCN(c3ccccc3)CC2)CC1, the “activity change, negative = growth inhibition” value is reported as inactive: -0.436%.
For Cc1nc2cc(NC(=O)c3ccc([N+](=O)[O-])s3)ccc2s1, the Potency was active: 5.17 µM.
In the case of Cc1ccccc1OCCn1c(-c2ccc(Cl)cc2)nc2ccccc2c1=O, the “activity change, negative = growth inhibition” value is reported as inactive: -2.86%.
For CCOC(=O)CCNC(=O)N1CCCC(C(=O)c2ccccc2SC)C1 (stereo not drawn), the “activity change, negative = growth inhibition” value was inactive: -6.94%.
With CC(NCC(=O)Nc1ccccc1C(=O)NC1CC1)c1ccccc1Cl (stereo not drawn) the “activity change, negative = growth inhibition” value was inactive: 3.62%.
In the case of CCOc1ccc(Cl)cc1-c1cc(C(=O)NCCOC)[nH]n1, the Potency is reported as inconclusive [inhibitor, partial curve].
With CCOC(=O)c1ccc(NC(=O)CSc2ncccn2)cc1 the Potency was inconclusive [inhibitor, single point].
In the case of CC(=O)c1ccc(OCCOc2ccc(C#N)cc2)cc1, the Potency is reported as inconclusive [inhibitor, single point].
For COc1cccc(NC(=O)c2ccc(-c3nc(COc4ccccc4)c(C)o3)cc2)c1, the Potency was inconclusive [inhibitor, partial curve, poor fit].
With Cc1cccc(Cn2nc(-n3cccc3)c3c(C)cc(C)nc32)c1 the Potency was inconclusive [inhibitor, partial curve, poor fit].
With CN(CC(=O)Nc1ccccc1C(F)(F)F)C(=O)CSCc1ccc(Cl)c(Cl)c1 the Potency was inconclusive [inhibitor, single point].
In the case of CCOc1ccc(NC(=O)CC2C(=O)N(c3ccc(Cl)cc3)C(=O)N2Cc2cccs2)cc1 (stereo not drawn), the Potency is reported as active: 13 µM.
In the case of CC1=C(C(=O)N2CCOCC2)CC(CC(=O)NCCCN(C)C)C(=O)N1CCCN1CCCC1=O (stereo not drawn), the “activity change, negative = growth inhibition” value is reported as inactive: -14.2%.
For COc1ccc(CC(=O)OC(C)C(=O)NC2CCCCC2C)cc1 (stereo not drawn), the “activity change, negative = growth inhibition” value was inactive: -28%.
For N#Cc1ccc(C(=O)N2CCN(c3ncccn3)CC2)cc1, the “activity change, negative = growth inhibition” value was inactive: -5.26%.
In the case of O=C(Nc1ccc2oc(-c3ccncc3)nc2c1)c1ccccc1Cl, the Potency is reported as inconclusive [inhibitor, single point].
For Cc1ccc(-c2nc(C#N)c(NCc3ccco3)o2)cc1, the Potency was inconclusive [inhibitor, partial curve].
With O=C(c1ccc(F)cc1)N1C2CCC1CC(O)(c1ccc(F)cc1)C2 (stereo not drawn) the “activity change, negative = growth inhibition” value was inactive: -11.9%.
In the case of CCc1ccccc1Nc1nn2c(=O)c3ccc(C(=O)NCCCOC(C)C)cc3nc2s1, the Potency is reported as inconclusive [inhibitor, partial curve].
In the case of Cc1ccc(OCCn2ncc3ccccc3c2=O)c(C)c1, the Potency is reported as inconclusive [inhibitor, single point].
With O=C(Nc1cccc(Cl)c1)c1ccc2c(c1)CCN2S(=O)(=O)c1ccccc1 the Potency was active: 20.6 µM.
In the case of CCOC(=O)[C@]12CCCC=C1N(Cc1ccco1)C(=O)[C@H](CC(=O)NCCc1ccccc1OC)C2, the Potency is reported as inconclusive [inhibitor, single point].
In the case of Cc1nc2ccc(C(=O)N3c4ccccc4N=C(c4ccc5c(c4)OCO5)C3C(=O)NCc3ccccc3)cc2[nH]1 (stereo not drawn), the Potency is reported as active: 1.64 µM.
With COc1ccc(Cl)cc1NC(=O)CN(C)C(=O)COc1ccccc1F the “activity change, negative = growth inhibition” value was inactive: -2.65%.
In the case of CCCCCC(=O)NC(=S)Nc1ccc(NC(=O)c2ccco2)cc1, the “activity change, negative = growth inhibition” value is reported as inactive: -29.3%.
With O=Cc1ccc(OCc2ccccn2)cc1 the Potency was inconclusive [inhibitor, single point].
With Oc1ccccc1CNc1cccc2cccnc12 the Potency was inconclusive [inhibitor, partial curve].
For COc1ccc(-n2c(C)nn(C)c2=O)cc1, the Potency was inconclusive [inhibitor, single point].
In the case of CSc1nnc(-c2ccc([N+](=O)[O-])cc2)o1, the Potency is reported as inconclusive [inhibitor, partial curve].
For CCCN1CNc2c(c(=O)[nH]c(=S)n2CCc2ccc3c(c2)OCCO3)C1, the Potency was inconclusive [inhibitor, partial curve].
For CCCCOc1ccc(C(=O)N2CC(C)OC(C)C2)cc1 (stereo not drawn), the Potency was inconclusive [inhibitor, single point].
For CCCCN(CC)C(=O)CSc1c2c(nc3ccc(Cl)cc13)CCCC2, the Potency was active: 16.4 µM.
